{"source": "the supplement of paper PMC8728848", "binders": {"B1": {"name": "SIGNR8 (Mus musculus) (protein)", "chain": "MAGEPEFHQSKNHEEEVTSGEQGFAEHDPEGLICSSKSLQGHLTQVPWLLLLLISLGLFLLMLATLVQVSRIRAYSQGQTQDQQGSSSLDKVAVPREQTHSGLEQIQQIQQQLTQFNASLAGLCRPCPWDWELFQGSCYLFSRTLGSWETSASSCEDLGAHLVIVNSVSEQRFMKYWNVRKNQRSWIGLSDHIHEGSWQWVDGSALKFSFWKEGEPNNDGDEDCVELFMDDWNDNKCTEQNFWVCEQPSAPCPHH"}}, "assay_in_all_cases": "glycan array binding signal (z-score within array); higher = stronger binding", "details_in_all_cases": "glycan notation: IUPAC condensed, linker removed", "key": {"[1]": {"molecular_target": "Neu5Ac(a2-3)Gal(b1-4)GlcNAc6S", "in_short": "(§1)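 Arrays were curated from the Consortium for Functional Glycomics database, 3228 in total, and kept only where the protein sequence was available. Binding is expressed as a within-array Z-score. This score was averaged across arrays of the same protein sequence at different concentrations or buffers and across linkers, and negative values can be read as non-binding.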"}, "[2]": {"molecular_target": "Neu5Ac(a2-3)Gal(b1-4)[Fuc(a1-3)]GlcNAc", "in_short": "as §1"}, "[3]": {"molecular_target": "Neu5Ac(a2-3)Gal(b1-4)[Fuc(a1-3)]GlcNAc(b1-3)Gal", "in_short": "as §1"}, "[4]": {"molecular_target": "Neu5Ac(a2-3)Gal(b1-4)[Fuc(a1-3)]GlcNAc(b1-3)Gal(b1-4)GlcNAc", "in_short": "as §1"}, "[5]": {"molecular_target": "Neu5Ac(a2-3)Gal(b1-4)[Fuc(a1-3)]GlcNAc(b1-3)Gal(b1-4)[Fuc(a1-3)]GlcNAc(b1-3)Gal(b1-4)[Fuc(a1-3)]GlcNAc", "in_short": "as §1"}, "[6]": {"molecular_target": "Neu5Ac(a2-3)Gal(b1-4)[Fuc(a1-3)]GlcNAc6S", "in_short": "as §1"}, "[7]": {"molecular_target": "Neu5Ac(a2-3)Gal6S(b1-4)GlcNAc", "in_short": "as §1"}, "[8]": {"molecular_target": "Neu5Ac(a2-3)Gal6S(b1-4)[Fuc(a1-3)]GlcNAc", "in_short": "as §1"}, "Neu5Ac(a2-3)GalNAc": {"molecular_target": "Neu5Ac(a2-3)GalNAc", "in_short": "as §1"}, "[9]": {"molecular_target": "Neu5Ac(a2-3)GalNAc(b1-4)GlcNAc", "in_short": "as §1"}, "[10]": {"molecular_target": "Neu5Ac(a2-3)[GalNAc(b1-4)]Gal(b1-4)Glc", "in_short": "as §1"}, "[11]": {"molecular_target": "Neu5Ac(a2-3)[GalNAc(b1-4)]Gal(b1-4)GlcNAc", "in_short": "as §1"}, "[12]": {"molecular_target": "Neu5Ac(a2-3)[Neu5Ac(a2-6)]GalNAc", "in_short": "as §1"}, "Neu5Ac(a2-6)Gal": {"molecular_target": "Neu5Ac(a2-6)Gal", "in_short": "as §1"}, "Neu5Ac(a2-6)Gal(b1-4)Glc": {"molecular_target": "Neu5Ac(a2-6)Gal(b1-4)Glc", "in_short": "as §1"}, "[13]": {"molecular_target": "Neu5Ac(a2-6)Gal(b1-4)GlcNAc", "in_short": "as §1"}, "[14]": {"molecular_target": "Neu5Ac(a2-6)Gal(b1-4)GlcNAc(b1-3)Gal(b1-4)GlcNAc", "in_short": "as §1"}, "[15]": {"molecular_target": "Neu5Ac(a2-6)Gal(b1-4)GlcNAc(b1-3)Gal(b1-4)[Fuc(a1-3)]GlcNAc(b1-3)Gal(b1-4)[Fuc(a1-3)]GlcNAc", "in_short": "as §1"}, "[16]": {"molecular_target": "Neu5Ac(a2-6)Gal(b1-4)GlcNAc6S", "in_short": "as §1"}, "Neu5Ac(a2-6)GalNAc": {"molecular_target": "Neu5Ac(a2-6)GalNAc", "in_short": "as §1"}, "[17]": {"molecular_target": "Neu5Ac(a2-6)GalNAc(b1-4)GlcNAc", "in_short": "as §1"}, "Neu5Ac(a2-8)Neu5Ac": {"molecular_target": "Neu5Ac(a2-8)Neu5Ac", "in_short": "as §1"}, "[18]": {"molecular_target": "Neu5Ac(a2-8)Neu5Ac(a2-3)Gal(b1-4)Glc", "in_short": "as §1"}, "[19]": {"molecular_target": "Neu5Ac(a2-8)Neu5Ac(a2-3)[GalNAc(b1-4)]Gal(b1-4)Glc", "in_short": "as §1"}, "[20]": {"molecular_target": "Neu5Ac(a2-8)Neu5Ac(a2-8)Neu5Ac", "in_short": "as §1"}, "[21]": {"molecular_target": "Neu5Ac(a2-8)Neu5Ac(a2-8)Neu5Ac(a2-3)Gal(b1-4)Glc", "in_short": "as §1"}, "[22]": {"molecular_target": "Neu5Ac(a2-8)Neu5Ac(a2-8)Neu5Ac(a2-3)[GalNAc(b1-4)]Gal(b1-4)Glc", "in_short": "as §1"}, "[23]": {"molecular_target": "Neu5Ac(a2-8)Neu5Ac(a2-8)Neu5Ac(a2-8)Neu5Ac(a2-3)[GalNAc(b1-4)]Gal(b1-4)Glc", "in_short": "as §1"}, "Neu5Ac(b1-6)GalNAc": {"molecular_target": "Neu5Ac(b1-6)GalNAc", "in_short": "as §1"}, "[24]": {"molecular_target": "Neu5Ac(b2-6)Gal(b1-4)GlcNAc", "in_short": "as §1"}, "[25]": {"molecular_target": "Neu5Ac9Ac(a2-6)Gal(b1-4)GlcNAc", "in_short": "as §1"}, "[26]": {"molecular_target": "Neu5Gc(a2-3)Gal(b1-3)GlcNAc", "in_short": "as §1"}, "[27]": {"molecular_target": "Neu5Gc(a2-3)Gal(b1-3)[Fuc(a1-4)]GlcNAc", "in_short": "as §1"}, "Neu5Gc(a2-3)Gal(b1-4)Glc": {"molecular_target": "Neu5Gc(a2-3)Gal(b1-4)Glc", "in_short": "as §1"}, "[28]": {"molecular_target": "Neu5Gc(a2-3)Gal(b1-4)GlcNAc", "in_short": "as §1"}, "[29]": {"molecular_target": "Neu5Gc(a2-3)Gal(b1-4)[Fuc(a1-3)]GlcNAc", "in_short": "as §1"}, "[30]": {"molecular_target": "Neu5Gc(a2-6)Gal(b1-4)GlcNAc", "in_short": "as §1"}, "Neu5Gc(a2-6)GalNAc": {"molecular_target": "Neu5Gc(a2-6)GalNAc", "in_short": "as §1"}}, "note": "The list shows a part of the results."}
{"binder": "B1", "values": [{"measurement": "glycan array binding signal (z-score)", "setting": "[1]", "result": -0.403}, {"measurement": "glycan array binding signal (z-score)", "setting": "[2]", "result": -0.399}, {"measurement": "glycan array binding signal (z-score)", "setting": "[3]", "result": -0.405}, {"measurement": "glycan array binding signal (z-score)", "setting": "[4]", "result": -0.38}, {"measurement": "glycan array binding signal (z-score)", "setting": "[5]", "result": -0.392}, {"measurement": "glycan array binding signal (z-score)", "setting": "[6]", "result": -0.394}, {"measurement": "glycan array binding signal (z-score)", "setting": "[7]", "result": -0.377}, {"measurement": "glycan array binding signal (z-score)", "setting": "[8]", "result": -0.395}, {"measurement": "glycan array binding signal (z-score)", "setting": "Neu5Ac(a2-3)GalNAc", "result": -0.398}, {"measurement": "glycan array binding signal (z-score)", "setting": "[9]", "result": -0.4}, {"measurement": "glycan array binding signal (z-score)", "setting": "[10]", "result": -0.4}, {"measurement": "glycan array binding signal (z-score)", "setting": "[11]", "result": -0.4}, {"measurement": "glycan array binding signal (z-score)", "setting": "[12]", "result": -0.387}, {"measurement": "glycan array binding signal (z-score)", "setting": "Neu5Ac(a2-6)Gal", "result": -0.395}, {"measurement": "glycan array binding signal (z-score)", "setting": "Neu5Ac(a2-6)Gal(b1-4)Glc", "result": -0.394}, {"measurement": "glycan array binding signal (z-score)", "setting": "[13]", "result": -0.396}, {"measurement": "glycan array binding signal (z-score)", "setting": "[14]", "result": -0.406}, {"measurement": "glycan array binding signal (z-score)", "setting": "[15]", "result": -0.398}, {"measurement": "glycan array binding signal (z-score)", "setting": "[16]", "result": -0.389}, {"measurement": "glycan array binding signal (z-score)", "setting": "Neu5Ac(a2-6)GalNAc", "result": -0.39}, {"measurement": "glycan array binding signal (z-score)", "setting": "[17]", "result": -0.401}, {"measurement": "glycan array binding signal (z-score)", "setting": "Neu5Ac(a2-8)Neu5Ac", "result": -0.405}, {"measurement": "glycan array binding signal (z-score)", "setting": "[18]", "result": -0.378}, {"measurement": "glycan array binding signal (z-score)", "setting": "[19]", "result": -0.403}, {"measurement": "glycan array binding signal (z-score)", "setting": "[20]", "result": -0.4}, {"measurement": "glycan array binding signal (z-score)", "setting": "[21]", "result": -0.381}, {"measurement": "glycan array binding signal (z-score)", "setting": "[22]", "result": -0.39}, {"measurement": "glycan array binding signal (z-score)", "setting": "[23]", "result": -0.396}, {"measurement": "glycan array binding signal (z-score)", "setting": "Neu5Ac(b1-6)GalNAc", "result": -0.392}, {"measurement": "glycan array binding signal (z-score)", "setting": "[24]", "result": -0.388}, {"measurement": "glycan array binding signal (z-score)", "setting": "[25]", "result": -0.384}, {"measurement": "glycan array binding signal (z-score)", "setting": "[26]", "result": -0.396}, {"measurement": "glycan array binding signal (z-score)", "setting": "[27]", "result": -0.391}, {"measurement": "glycan array binding signal (z-score)", "setting": "Neu5Gc(a2-3)Gal(b1-4)Glc", "result": -0.364}, {"measurement": "glycan array binding signal (z-score)", "setting": "[28]", "result": -0.396}, {"measurement": "glycan array binding signal (z-score)", "setting": "[29]", "result": -0.389}, {"measurement": "glycan array binding signal (z-score)", "setting": "[30]", "result": -0.397}, {"measurement": "glycan array binding signal (z-score)", "setting": "Neu5Gc(a2-6)GalNAc", "result": -0.399}]}
